# Reference: PubChem BioAssay AID463173 (ICCB-Longwood Screening Facility, Harvard Medical School, 2010)
# Among all 52,000 compounds or so, about 1,700 (3.3%) were called active. Cut-off read from the data, not from the text of the source: active = survival mostly below about 52% (no sharp cut-off); inactive = mostly above about 56%. This is one part of the list.
# System: Wild type
# Experiment: S. aureus survival, RN4220 and DeltatarO strains – OD600, teichoic acid synthesis inhibitors, primary screen (AID 463173)
# Settings: S. aureus RN4220 wild type/DeltatarO growth, OD600, 18 h, stronger effect = lower value, screened at 18.75 µg/mL (by protocol)
row,SMILES,survival
1,Cc1ccc(C2Nc3ccccc3-n3c(-c4ccccc4)c4c(=O)n(C)c(=O)n(C)c4c32)cc1 (stereo unspecified),active: -8%
2,COc1ccc(NC(=O)c2nn(C)c3c2CSc2ccc(C)cc2-3)cc1OC,inactive: 68%
3,COCCCNC(=O)c1ccc(Cn2c(=O)c3ccccc3n(Cc3ccc(C)cc3)c2=O)cc1,inactive: 74%
4,COc1ccc(CNC(=O)c2ccc(CNS(=O)(=O)c3ccc(OC)cc3)cc2)cc1,inactive: 86%
5,COc1cccc(NC(=O)c2ccc3c(=O)n4nc(Nc5ccccc5OC)sc4nc3c2)c1,inactive: 76%
6,CCOC(=O)c1ccc(NC(=O)CC2Nc3cc(C)c(C)cc3NC2=O)cc1 (stereo unspecified),inactive: 75%
7,COCCOC(=O)Cn1nnc2sc(-c3ccccc3)cc2c1=O,inactive: 83%
8,Cc1nn(S(=O)(=O)c2ccc(C(C)C)cc2)c(C)c1S(=O)(=O)N1CCCCC1,inactive: 55%
9,Cc1ccc2c(c1)-c1c(cnn1CC(=O)N1CCN(c3cccc(C(F)(F)F)c3)CC1)CO2,inactive: 54%
10,CC(=O)N1CCCc2cc(S(=O)(=O)N3CCCC(C(=O)N4CCN(c5ccccc5F)CC4)C3)ccc21 (stereo unspecified),inactive: 73%
11,Cc1nc(SCC(=O)OC(C)(C)C)c2c3c(sc2n1)CCCC3,active: 15%
12,O=C(c1nn2c(c1Cl)NC(c1cccs1)CC2C(F)(F)F)N1CCOCC1 (stereo unspecified),inactive: 103%
13,CCc1cccc(C)c1NS(=O)(=O)c1ccc2c(c1)NC(=O)C(C)C(=O)N2 (stereo unspecified),inactive: 127%
14,CCOc1ccc(-n2c(=O)c3c4c(sc3n(CC(=O)NCCCOC)c2=O)CCCCC4)cc1,inactive: 117%
15,Cc1ccc(CNC(=O)c2c(-c3ccc(F)cc3F)noc2C)o1,inactive: 85%
16,Cc1cc(C)c(NC(=O)Cn2nnc(C(=O)NCc3cccs3)c2N)c(C)c1,inactive: 75%
17,COc1ccc(-c2cn3nc(N4CCCC(C(=O)Nc5cc(Cl)ccc5OC)C4)sc3n2)cc1 (stereo unspecified),inactive: 69%
18,CCOC(=O)c1cc2c(=O)n3ccccc3nc2n(Cc2ccco2)c1=NC(=O)c1ccc(OC)cc1,inactive: 68%
19,CSc1ccc(CNC(=O)c2ccc3c(c2)N(C)C(=O)C2CCCCN32)cc1 (stereo unspecified),inactive: 83%

row,SMILES,survival
1,CC(C)COc1ccc(C(=O)Nc2scc(-c3ccc(Br)cc3)c2C(=O)OC(C)C)cc1,inactive: 76%
2,Cc1ccccc1OCc1ccc(-c2nc(C#N)c(N3CCCCC3)o2)o1,inactive: 122%
3,COc1cc(NC(=O)Cn2c(=O)n(-c3ccccc3)c(=O)c3c4c(sc32)CCCC4)cc(OC)c1,inactive: 94%
4,CCCCNC(=O)c1cnn2c(C)c(Cc3c(C)cc(C)cc3C)c(C)nc12,inactive: 124%
5,COc1ccc(CC(=O)NCC(c2ccc(N(C)C)cc2)N2CCOCC2)cc1OC (stereo unspecified),inactive: 81%
6,O=c1ccc2cc(S(=O)(=O)NCc3ccc(Cl)cc3)ccc2[nH]1,inactive: 84%
7,O=C(NCc1ccccc1)c1cccc(N2CCCS2(=O)=O)c1,inactive: 125%
8,Cc1nc2cccnc2n1C1CCN(C(=O)Nc2ccccc2C(F)(F)F)CC1,inactive: 72%
9,COc1cc(C)nc(Oc2ccc(OCCOc3ccccc3)nn2)n1,inactive: 98%
10,CNS(=O)(=O)c1cn(CC(=O)N2CCN(c3ccc(Cl)cc3)CC2)cc1S(=O)(=O)NC,inactive: 124%
11,COc1ccc(C(=O)COC(=O)CCCC(=O)Nc2ccc(C(C)=O)cc2)cc1,inactive: 72%
12,CCOc1ccc(-n2nc(CO)c(C(=O)NCC(c3ccccc3)c3ccccc3)n2)cc1,inactive: 89%
13,COC(=O)c1scc(-c2ccc(C)cc2)c1S(=O)(=O)Nc1ccc(NC(C)=O)cc1,inactive: 121%
14,Cc1cc(C)c(NC(=O)COCc2cc(-c3cccs3)on2)c(C)c1,inactive: 82%
15,COc1ccc(-c2cn3nc(SCC(=O)Nc4ccccc4F)ccc3n2)cc1,inactive: 68%
16,CCc1cccc(N2C(=O)CSC23C(=O)N(Cc2ccccc2F)c2ccccc23)c1 (stereo unspecified),inactive: 83%
17,COc1ccc(-n2ncc(C(=O)NCc3ccc4c(c3)OCO4)c2C2CCN(C(=O)OC(C)(C)C)CC2)cc1,inactive: 111%
18,O=C(CSc1nccn1Cc1ccc(F)cc1)NCc1ccccc1,inactive: 72%
19,COc1ccc(S(=O)(=O)N(CC(=O)NCCSc2ccccc2)c2ccc(Cl)cc2)cc1,inactive: 72%

row,SMILES,survival
1,Cc1cccc(OCC(=O)Nc2cccc(C(=O)OCc3cc(=O)n4c(C)csc4n3)c2)c1,active: -6%
2,CCCCn1c(SCC(=O)NC(C)(C)C)nnc1-c1ccncc1,inactive: 110%
3,CC(N)c1ccc2c(c1)OCCO2 (stereo unspecified),inactive: 83%
4,Cc1ccccc1CNC(=O)Cc1csc2ccccc12,inactive: 94%
5,CCCSc1ncc(Cl)c(C(=O)Nc2sc3c(c2C(N)=O)CCCC3)n1,inactive: 83%
6,COC(=O)c1ccc(-n2nnc(-c3nsc(NC(=O)c4ccc(Cl)cc4)n3)c2C)cc1,inactive: 79%
7,O=c1c(NCCc2ccc(Cl)cc2)nccn1-c1ccccc1,active: 14%
8,COc1ccccc1NC(=O)CCNS(=O)(=O)c1ccc2c(c1)CCN2C(=O)C1CC1,inactive: 135%
9,CCNc1nc(OCC(F)(F)F)nc(N(c2ccccc2)c2ccccc2)n1,inactive: 129%
10,Cc1cc2n(n1)CCCN2C(=O)Nc1ccc(C)c(Cl)c1,inactive: 66%
11,Cc1ccc(C)c(N2CCN(S(=O)(=O)c3ccc(F)c(C(=O)Nc4ccc(Cl)cc4Cl)c3)CC2)c1,inactive: 80%
12,CC(O)Cn1c(Br)nc2c1c(=O)n(C)c(=O)n2C (stereo unspecified),inactive: 103%
13,COc1ccc(OC)c(CCNC(=O)c2cc3cccc4c3n2CCS4)c1,inactive: 71%
14,CCOC(=O)c1c(C)oc2ccc(N(C(=O)c3ccncc3)S(=O)(=O)c3ccc(F)cc3)cc12,inactive: 54%
15,CCN(Cc1ccccc1)C(=O)CCS(=O)(=O)c1cc(Br)cc2c1N(C(=O)C1CC1)CC2,inactive: 78%
16,CN(c1ccccc1)S(=O)(=O)c1nnc(NC(=O)c2cccs2)s1,inactive: 59%
17,CCc1ccccc1N(C)C(=O)c1cc2c(Cl)nc3ccc(C)cc3c2s1,active: 0%
18,Cc1ccc2[nH]c3c(=O)n(CC(=O)NCCCN4CCN(c5ccc(F)cc5)CC4)ncc3c2c1,inactive: 87%
